Assay results published in PubChem BioAssay AID485344 (National Center for Advancing Translational Sciences (NCATS), 2010).
The whole screen tested about 340,000 compounds, of which about 6,900 (2%) were called active. No stated cut-off is given here; in the data, active means inhibition above about 30%; inactive means below that, where a call was filed. Only a part is listed here, and it is no random draw. Where no call is shown, the source filed none.

Biological target: D(2) dopamine receptor (Homo sapiens) (UniProt P14416)
Test: HTS Assay for Allosteric Antagonists of the Human D2 Dopamine Receptor: Primary Screen for Antagonists; further: 0% is about no effect
Details: HEK293 TREx D2 cells, calcium flux, dopamine EC80; at 10 µM; stronger effect = higher value
Summary of the method: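 Read-out: kinetic calcium fluorescence (1 cycle/s) in inducible HEK293 T-REx D2 cells after an EC80 dopamine addition that followed 180 s compound preincubation. Loss of the dopamine response indicates antagonism.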

Sequence of UniProt P14416 (P14416 whole entry, looked up): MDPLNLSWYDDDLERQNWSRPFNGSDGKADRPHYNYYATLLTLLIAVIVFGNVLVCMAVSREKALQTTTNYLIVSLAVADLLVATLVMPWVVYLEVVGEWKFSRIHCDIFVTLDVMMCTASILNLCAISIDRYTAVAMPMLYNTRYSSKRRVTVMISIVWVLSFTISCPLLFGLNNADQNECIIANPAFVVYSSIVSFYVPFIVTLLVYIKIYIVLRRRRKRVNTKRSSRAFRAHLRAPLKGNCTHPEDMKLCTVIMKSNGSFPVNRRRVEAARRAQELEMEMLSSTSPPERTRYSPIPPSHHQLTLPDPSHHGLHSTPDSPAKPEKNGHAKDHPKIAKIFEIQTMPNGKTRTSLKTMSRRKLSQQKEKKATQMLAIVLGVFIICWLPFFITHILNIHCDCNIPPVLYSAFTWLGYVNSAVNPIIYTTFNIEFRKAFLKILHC

SMILES | inhibition
O=C(NCc1ccc(Cl)cc1)c1ccc(NC(=O)N2CC3CCCN3c3ccccc32)cc1 (configuration not stated) | 6.46%
Cc1cc(C)c2c(n1)SCC(=O)N2CC(=O)Nc1ccc(C)c(C)c1 | 12.8%
COCCNc1ncnc2c1cnn2-c1cc(Cl)ccc1C | -11.4%
O=C(CCNS(=O)(=O)c1ccccc1)NCCSc1ccc(Br)cc1 | active: 45.1%
Cn1nc(C(=O)NCc2cccc(Cl)c2)c2c1-c1ccccc1SC2 | -7.88%
CN1CCN(C(c2ccc(Cl)cc2Cl)c2sc3nc(-c4ccco4)nn3c2O)CC1 (configuration not stated) | 7.95%
Cc1ccc(S(=O)(=O)C2(C(=O)Nc3ccc(C)c(Cl)c3)CC2)cc1 | -9.49%
CCC(=O)N1c2ccccc2CC1C(=O)NCCc1ccccc1Cl (configuration not stated) | -16.7%
Cc1ccc(OCC(=O)Nc2ccc(OCc3cc(=O)n4ccsc4n3)cc2)cc1 | -14%
O=S(=O)(NCc1ccccc1Cl)c1ccc(-c2cnc(C3CC3)o2)cc1 | -9.28%
COc1ccc(N2C(=O)CSC23C(=O)N(Cc2ccccc2F)c2ccccc23)cc1Cl (configuration not stated) | 4.8%
Cc1c(CC(=O)N2CCCCC2)c(=O)oc2cc3occ(C(C)(C)C)c3cc12 | -0.547%
COc1ccc(-c2cn3cccnc3n2)cc1NC(=O)COc1ccccc1 | 7.52%
CCC1=Nc2cc(C(=O)NCc3ccccc3OC)ccc2Sc2ccc(Cl)cc21 | 6.15%
Cc1ccccc1CNC(=O)c1cccc(NC(=O)c2nsc3ccccc23)c1 | -14.8%
COc1ccccc1C1=NS(=O)(=O)N(C)C(C(=O)Nc2cc(OC)c(OC)c(OC)c2)=C1 | 16.5%
Cc1ccc2c(c1)c1c(c(=O)n(-c3cccc(Cl)c3)c(=O)n1CC(=O)c1ccc(Cl)cc1)n2C | 21.3%
CC(C)Cn1cc(NC(=O)NCc2ccccc2)c2ccccc2c1=O | -3.4%
CCCCn1c(=N)c(S(=O)(=O)c2ccccc2)cc2c(=O)n3cccc(C)c3nc21 | 11.9%
Cc1nc2nc(SCC(=O)Nc3cccc(Cl)c3)nn2c(C)c1Cc1ccccc1 | -5.91%
COc1ccc(Nc2nc3c(S(=O)(=O)c4ccccc4)nnn3c3ccc(Cl)cc23)c(OC)c1 | -8.16%
CC1(C)CC(=O)C/C(=N/Nc2nc3ccccc3s2)C1 | active: 35.8%
Fc1ccc(-c2cc(-c3nc(-c4ccccc4)no3)[nH]n2)cc1 | 11.1%
Cc1ccc(S(=O)(=O)N(C)C)cc1NC(=S)N1CCc2ccccc21 | active: 55.3%
CC(C)c1ccc(NC(=O)c2cn(C3CCCCC3)c(=O)c3c2c2ccccc2n3C)cc1 | 9.36%

SMILES | inhibition
Cc1ccc(CNC(=O)Cn2c(=O)n(Cc3ccccc3)c(=O)c3c2c2cc(C)ccc2n3C)cc1 | -4.11%
COc1cc(N2C(=O)CSC23C(=O)N(C)c2ccccc23)cc(OC)c1OC (configuration not stated) | 2.05%
CCOc1ccc(N2CC(C)Cn3c2nc2c3c(=O)n(CC(=O)O)c(=O)n2C)cc1 (configuration not stated) | -6.07%
COc1ccc(Cl)cc1NC(=O)Nc1cccc([N+](=O)[O-])c1C | active: 66.3%
COCCN1Cc2cccc(C(=O)Nc3ccc(C)c(F)c3)c2C1=O | 13.6%
Cc1cc(C)cc(NC(=O)C(=O)NCC(c2ccc3c(c2)OCO3)N2CCOCC2)c1 (configuration not stated) | 12.6%
COC(=O)c1cccc(NC(=O)N(C)CCc2c(C)nn(C)c2C)c1 | 11.8%
Cc1ccc(CNC(=O)c2cccc(N3CCCS3(=O)=O)c2)cc1 | 6.35%
CN(C(=O)CSc1nc2ccc(NC(=O)c3ccccc3F)cc2s1)c1ccccc1 | 9.44%
CCCCn1cc(S(=O)(=O)c2ccc(OCC)cc2)c(=O)c2cc(OC)c(OC)cc21 | -1.39%
CCOc1ccc(C2C(=O)N(C3CCCCCC3)CC(=O)N2CCC2=CCCCC2)cc1OC (configuration not stated) | -24.7%
Cc1ccc(NC(=O)CN(CCc2ccccc2)S(=O)(=O)c2ccccc2)c(C)c1 | -7.56%
CCOc1ccc(CNC(=O)Cn2nc(C)n3cccc3c2=O)cc1 | 28.1%
CCc1ccc(-n2nc3ccc(NC(=O)c4cc(Cl)c(OC)c(Cl)c4)cc3n2)cc1 | -16.1%
Cc1ccc(CNC(=O)c2cc3c(s2)CN(Cc2ccccc2)C3)cc1 | active: 38.9%
Cc1ccc(C)c(NC(=O)CCS(=O)(=O)c2cccc3nsnc23)c1 | 4.65%
CCc1cccc(CC)c1N(COC)C(=O)Cn1c(CC)nc2ccccc21 | -11.3%
Cc1ccc(NC(=O)Cn2c(CCC(=O)O)ccc2-c2cccs2)cc1Cl | -2.29%
Cn1c(=O)oc2cc(S(=O)(=O)N3CCCC(C(=O)N4CCN(c5ccc(Cl)cc5)CC4)C3)ccc21 (configuration not stated) | 3.67%
O=C(CCNC(=O)c1ccc(Br)cc1)NCCCc1ccccc1 | active: 34.2%
Cc1ccc(C)c(N2CCN(C(=O)C3CCN(S(=O)(=O)c4ccc5[nH]c(=O)oc5c4)CC3)CC2)c1 | -2.15%
CCc1ccc2nc(N3CCN(C(=O)c4ccccc4)CC3)sc2c1 | -19.9%
Cc1cc2c(cc1S(=O)(=O)N(CCO)Cc1ccccc1)OCC(=O)N2 | -24.5%
COc1ccc(NC(=O)CN2C(=O)CSc3ccc(S(=O)(=O)N(C)C)cc32)cc1OC | -10.2%
CCOc1cc(C2C(C(=O)Nc3ccccc3)=C(C)Nc3ncnn32)cc(Br)c1O (configuration not stated) | -6.63%

SMILES | inhibition
CCNS(=O)(=O)c1cc(-c2nnc(Nc3cccc(C(F)(F)F)c3)c3ccccc23)ccc1C | 7.34%
COC(=O)c1cc2oc3ccccc3c2n1CC(=O)Nc1ccc(OC)c(OC)c1 | 0.695%
O=C(NC1CCCCC1)c1ccc(CSc2nc3ccncc3n2Cc2ccccc2)cc1 | 7.06%
Cc1ccc2onc(CC(=O)N3CCN(c4ccc(Cl)cc4)CC3)c2c1 | -4.85%
O=C(NCCc1ccccc1)c1ccc(Cn2c(=O)c3cccn3c3cccnc32)cc1 | 10.1%
Cc1ccc(NC(=O)Cn2c(=O)n(CCCC(=O)NCc3ccc4c(c3)OCO4)c(=O)c3ccccc32)cc1 | 9.78%
CCCCCCc1c(C)c2c(cc(C)c3c(C)c(C)oc32)oc1=O | -10.1%
Cc1cccc(N2CCN(C(=O)CCCn3c(=O)[nH]c4ccsc4c3=O)CC2)c1C | -2.46%
O=C1CC(c2nc3ccccc3n2CCC2CCCCC2)CN1c1ccccc1Cl (configuration not stated) | 3.04%
Oc1c(C(c2ccccc2F)N2CCC3(CC2)OCCO3)sc2nc(-c3ccco3)nn12 (configuration not stated) | 24.4%
CCCCN(C(=O)Nc1ccc(Cl)cc1)C1CCN(C(C)=O)CC1 | -15.6%
CC(=O)c1cccc(NC(=O)C2=CC(c3ccc(F)cc3)=NS(=O)(=O)N2C)c1 | 3.46%
CCOc1ccc(NC(=O)C2CCCN(c3nn4cc(-c5ccc(OC)cc5)nc4s3)C2)cc1 (configuration not stated) | -5.94%
O=C(Cn1cnc(S(=O)(=O)N2CCCC2)c1)Nc1cccc(F)c1 | -5.35%
Cc1nc2nc(C)c(NS(=O)(=O)c3ccc(F)cc3)c(=O)n2[nH]1 | 8.43%
Cc1ccc(NC(=O)c2sc3nc4n(c(=O)c3c2C)CCCCC4)c(Br)c1 | 10.9%
CCOC(=O)c1cc2c(=O)n3ccccc3nc2n(CCCOC)c1=NC(=O)c1c(-c2ccccc2Cl)noc1C | 0.334%
CCCS(=O)(=O)NCCc1csc2nc(-c3ccc(C)cc3)nn12 | -12.7%
COc1ccc(-n2nc(C(=O)NCCCOC(C)C)c3c4ccccc4n(C)c3c2=O)cc1 | -3.36%
COc1ccc(OC)c(N(C(=O)c2ccco2)C(C(=O)NC2CCCC2)c2cc(OC)c(OC)c(OC)c2)c1 (configuration not stated) | active: 36.2%
O=C(Nc1c(Cl)cccc1Cl)c1cccc2c1C(=O)N(C1CCCCC1)C2 | 0.344%
O=C(O)c1ccc2oc(=O)n(Cc3ccccc3)c2c1 | 13.6%
CCOC(=O)C1CCN(C(=S)NC2CCCC2)CC1 | active: 34.1%
COc1ccc(C2C(=O)N(C3CCC(C)CC3)CC(=O)N2C2CCCCC2)cc1OC (configuration not stated) | 19.9%
Fc1ccccc1N1CCN(c2ncnc3c2nc2n3CCCCC2)CC1 | -0.206%

SMILES | inhibition
COc1ccc(CNc2nc3c(-c4ccc(C)cc4)nnn3c3ccccc23)cc1 | -6.28%
CCOc1ccc(NC(=O)CC2C(=O)N(c3ccc(F)cc3)C(=O)N2CCc2sccc2C)cc1 (configuration not stated) | 15.6%
COCCN(Cc1ccco1)C(=O)c1cc2c(Cl)nc3ccc(C)cc3c2s1 | -3.21%
CCN(CC)CCCNC(=O)CSc1nc2nc(C)c(Cc3ccccc3C)c(C)n2n1 | -2.06%
Cc1ccc2c(CC(=O)N3CCN(c4cccc(Cl)c4)CC3)coc2c1C | 11.1%
CC(=O)Nc1ccc(NC(=O)Cn2cc3c(n2)CCCCC3)cc1 | -5.33%
Cc1cccc(OCCSc2nc3ccc(NC(=O)COc4ccccc4C)cc3s2)c1 | -14.6%
COC(=O)CN1C(=O)CSc2ccc(S(=O)(=O)Nc3ccccc3)cc21 | -17.7%
O=C(Cc1cccs1)Nc1ccc(NC(=O)c2ccco2)cc1 | active: 30.7%
COc1ccc(/C=C/c2ccncc2)c2ccccc12 | active: 44.6%
CCOC(=O)c1c(NC(=O)CSc2cn(CCNC(=O)c3ccc(OC)c(OC)c3)c3ccccc23)sc2c1CCC2 | -0.426%
COC(=O)C1CCN(Cc2ccc(OCCCN3CCN(c4ccc([N+](=O)[O-])cc4)CC3)cc2)CC1 | active: 74.5%
C=CCc1ccc(OCC(O)CN2CCc3ccccc3C2)c(OC)c1 (configuration not stated) | active: 47%
Cc1cn2c(=O)cc(COC(=O)c3cccc(NC(=O)COc4ccccc4)c3)nc2s1 | 14.4%
Cc1cc(C)n2nc(-c3ccc(Cl)cc3)nc2n1 | 12.1%
Cc1cccc(N2CCN(c3nc4ccc(C(=O)c5ccccc5)cc4n4cnnc34)CC2C)c1 (configuration not stated) | 8.68%
CC(C)Oc1ccc(CNC(=O)c2ccc(CS(=O)Cc3ccccc3Cl)o2)cc1 (configuration not stated) | 3.82%
CCc1cc2c(NC(Cc3c[nH]c4ccccc34)C(=O)O)nc(C)nc2s1 (configuration not stated) | active: 34.2%
COc1ccc(NC(=O)c2ccc3c(c2)N(Cc2cccc(Cl)c2)C(=O)c2ccccc2S3(=O)=O)cc1Cl | -2.68%
CCN(CC)C(=O)Cn1ncc2c([nH]c3ccc(C)cc32)c1=O | 6.83%
O=C(NC1CCCCC1)C(c1ccncc1)N(C(=O)c1csnn1)c1ccc(F)cc1 (configuration not stated) | active: 37%
Cc1ccc(-n2nc(C(=O)NCc3ccc(F)cc3Cl)c3c4ccccc4n(C)c3c2=O)cc1 | 17.5%
